Our source for the GI50 and TGI values is PubChem BioAssay (NCI).

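How tested: cells in 96-well plates exposed to compound for 48 hours at five concentrations. GI50 marks 50% less growth. At the TGI there is no net growth.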

The experiment relates to NCI-H322M lung. Briefly: growth of human tumour cells (NCI), 48 h.

Consider `CN1CCN(Cc2ccc(NC(=O)c3cncc(C#Cc4cnc5ccc(NCCO)nn45)c3)cc2C(F)(F)F)CC1`, for which the GI50 was 337 nM and the TGI worked out at 1870 nM.
On the same counts, the results for `CC1(C)CC[C@]23CC[C@]4(C)[C@H](CC[C@@H]5[C@@]6(C)CC[C@H](N)C(C)(C)[C@@H]6CC[C@]54C)[C@H]2[C@H]1OC3` are 1630 nM and 3080 nM.
